From PubChem BioAssay AID1159614 (National Center for Advancing Translational Sciences (NCATS), 2016)
Among all 45,000 compounds or so, about 65 (0.1%) were called active. The call rests on the fitted dose curve; in most records, active means well fitted activation curve with a large enough effect; inconclusive means small, poorly fitted or top-dose-only effect; inactive means no such curve, though single readings can be large or run the other way. The list shows a part of the results.

Biological target: Galactocerebrosidase (Homo sapiens) (UniProt P54803)
Experiment: A Novel Cell-Based Assay to Identify Small Molecules for B -Galactocerebrosidase; further: 0% is about no effect; nearly all actives have a fitted effect of over 65% in size
Details: 145M-Twi-hGALC-G270D cells (Twitcher mouse brain line with human GALC G270D), HMU-beta-Gal fluorescence, 48 h; series mostly up to 57.5 µM; activation: at the top concentration
Outline: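 Fluorescence readout: HMU-β-gal cleavage by mutant GALC (0.1 mM final, citrate/phosphate pH 5.2 with 1 mg/mL taurocholate), stopped with carbonate/bicarbonate plus Triton X-100. Cells: murine Twitcher 145M-Twi expressing human G270D GALC; qHTS for activators.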

Chain of UniProt P54803 (P54803 whole entry, looked up): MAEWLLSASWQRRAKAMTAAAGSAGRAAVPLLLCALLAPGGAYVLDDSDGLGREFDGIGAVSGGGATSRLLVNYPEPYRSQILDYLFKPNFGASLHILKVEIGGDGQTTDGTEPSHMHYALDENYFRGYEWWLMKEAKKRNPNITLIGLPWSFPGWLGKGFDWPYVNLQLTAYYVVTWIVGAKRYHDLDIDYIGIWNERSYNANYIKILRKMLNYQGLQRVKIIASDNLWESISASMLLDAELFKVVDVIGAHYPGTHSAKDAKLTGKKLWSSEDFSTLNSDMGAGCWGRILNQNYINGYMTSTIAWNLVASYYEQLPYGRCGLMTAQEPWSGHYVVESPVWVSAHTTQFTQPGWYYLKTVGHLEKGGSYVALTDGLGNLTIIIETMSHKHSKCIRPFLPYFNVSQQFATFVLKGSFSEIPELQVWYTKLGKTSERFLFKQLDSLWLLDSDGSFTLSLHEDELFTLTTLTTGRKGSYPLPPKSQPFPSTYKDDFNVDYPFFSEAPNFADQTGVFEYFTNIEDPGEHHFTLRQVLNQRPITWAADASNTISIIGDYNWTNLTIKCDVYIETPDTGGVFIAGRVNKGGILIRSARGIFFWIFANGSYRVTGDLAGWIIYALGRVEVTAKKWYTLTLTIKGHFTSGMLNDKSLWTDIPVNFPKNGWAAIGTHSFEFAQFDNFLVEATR

activation, inactive:
CCOC(=O)C1CCCN(c2cc(C)nc3c(-c4ccccc4OC)c(C)nn23)C1 (stereo not given) -9.69%, CC1=C(C(=O)OC(C)C)C(c2cccc([N+](=O)[O-])c2)C(C(=O)OC2CN(C(c3ccccc3)c3ccccc3)C2)=C(N)N1 (stereo not given) -15.9%, Cc1c(C)n(C)c2ccc(C(=O)NCCCN3CCCCC3C)cc12 (stereo not given) 0.872%, O=C(c1cc2c(s1)-c1ccccc1OC2)N1CCN(c2ccccc2F)CC1 -13.5%, CCOC(=O)c1ccc(N2C(=O)c3n[nH]c(-c4ccco4)c3C2c2ccc(O)cc2)cc1 (stereo not given) 1.76%, COc1ccc(C)cc1NC(=O)c1c(C)oc2ncn(CC(C)C)c(=O)c12 -4.25%, CCCn1cc(S(=O)(=O)c2ccccc2)c(=O)c2cc(F)c(N3CCCC(C)C3)cc21 (stereo not given) -5.16%, CCCCCOc1c(Cl)cc(C(=O)N(Cc2ccc(C)o2)C2CCS(=O)(=O)C2)cc1Cl (stereo not given) -8.37%, CCCN(CCC)CCCNC(=O)C1CCN(S(=O)(=O)CC)CC1 -0.935%, COc1ccc(C)c2sc(N(Cc3cccnc3)C(=O)C3CCCCC3)nc12 -12.3%, Cc1ccc(S(=O)(=O)c2cc3cc(C(=O)O)ccc3oc2=O)cc1 -18%, CCN[C@@H]1C[C@H](N)[C@@H](OC2OC(CN)=CCC2N)[C@H](O)[C@H]1O[C@H]1OC[C@](C)(O)[C@H](NC)[C@H]1O (stereo not given in full) -14.3% [at 0.46 µM], CCn1cc(CCC(=O)NCc2ccccc2OC)c2ccccc21 4.93%, Cc1ccc(S(=O)(=O)CC(=O)Nc2sc3c(c2C#N)CCCC3)cc1 -5.19%, Cc1ccc(CSCC(=O)N2CCN(c3ccccc3F)CC2)cc1 -15.6%, Cc1cc(C2CCCCC2)n(O)c(=O)c1 -32.9%, CCOC(=O)Cn1c(=O)n(C2CCCCC2)c2nc(-c3cccc(F)c3)nc(C(N)=O)c21 -13.4%, CC1=C(C(=O)Nc2ccccc2)C(c2cccnc2)n2nc(SCc3ccccc3Cl)nc2N1 (stereo not given) -2.29%, CCOc1cccc(C(c2c(C)n(C)n(-c3ccccc3)c2=O)c2c(C)n(C)n(-c3ccccc3)c2=O)c1OC -4.79%, CCOC(=O)c1c(NC(=O)COc2cc(C)ccc2C(C)C)sc(C)c1C -7.49%, CCOc1ccccc1NC(=O)Cn1c(=O)n(-c2ccc(F)cc2)c(=O)c2sc3ccccc3c21 -10.2%, COc1ccc(CCNC(=O)CCCn2c(=O)c3ccccc3n(CC(=O)Nc3cc(Cl)ccc3C)c2=O)cc1OC -6.88%, CCOc1ccc(NC(=O)c2nn(C)c3c2CS(=O)(=O)c2ccccc2-3)cc1 -4.96%, COc1ccc2cc(C=O)ccc2c1 -12.2%, CCOc1ccc(-c2nnc(SCC(=O)NCCc3ccc(OC)c(OC)c3)nc2-c2ccc(OCC)cc2)cc1 -13.8%
